{"source": "paper PMC4336329", "about": "(PLoS ONE, 2015)", "note": "Among all 310,000 compounds or so, about 14,000 (4.5%) showed an effect of 50% or more. The effect is printed as a negative number. The list shows a part of the results.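 Also: peak tail current of the secondary pulse compared with the same well before compound.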"}
{"molecular_target": "human ether-à-go-go-related gene (hERG) potassium channel (human, UniProt Q12809)", "sequence (Q12809 whole entry, looked up)": "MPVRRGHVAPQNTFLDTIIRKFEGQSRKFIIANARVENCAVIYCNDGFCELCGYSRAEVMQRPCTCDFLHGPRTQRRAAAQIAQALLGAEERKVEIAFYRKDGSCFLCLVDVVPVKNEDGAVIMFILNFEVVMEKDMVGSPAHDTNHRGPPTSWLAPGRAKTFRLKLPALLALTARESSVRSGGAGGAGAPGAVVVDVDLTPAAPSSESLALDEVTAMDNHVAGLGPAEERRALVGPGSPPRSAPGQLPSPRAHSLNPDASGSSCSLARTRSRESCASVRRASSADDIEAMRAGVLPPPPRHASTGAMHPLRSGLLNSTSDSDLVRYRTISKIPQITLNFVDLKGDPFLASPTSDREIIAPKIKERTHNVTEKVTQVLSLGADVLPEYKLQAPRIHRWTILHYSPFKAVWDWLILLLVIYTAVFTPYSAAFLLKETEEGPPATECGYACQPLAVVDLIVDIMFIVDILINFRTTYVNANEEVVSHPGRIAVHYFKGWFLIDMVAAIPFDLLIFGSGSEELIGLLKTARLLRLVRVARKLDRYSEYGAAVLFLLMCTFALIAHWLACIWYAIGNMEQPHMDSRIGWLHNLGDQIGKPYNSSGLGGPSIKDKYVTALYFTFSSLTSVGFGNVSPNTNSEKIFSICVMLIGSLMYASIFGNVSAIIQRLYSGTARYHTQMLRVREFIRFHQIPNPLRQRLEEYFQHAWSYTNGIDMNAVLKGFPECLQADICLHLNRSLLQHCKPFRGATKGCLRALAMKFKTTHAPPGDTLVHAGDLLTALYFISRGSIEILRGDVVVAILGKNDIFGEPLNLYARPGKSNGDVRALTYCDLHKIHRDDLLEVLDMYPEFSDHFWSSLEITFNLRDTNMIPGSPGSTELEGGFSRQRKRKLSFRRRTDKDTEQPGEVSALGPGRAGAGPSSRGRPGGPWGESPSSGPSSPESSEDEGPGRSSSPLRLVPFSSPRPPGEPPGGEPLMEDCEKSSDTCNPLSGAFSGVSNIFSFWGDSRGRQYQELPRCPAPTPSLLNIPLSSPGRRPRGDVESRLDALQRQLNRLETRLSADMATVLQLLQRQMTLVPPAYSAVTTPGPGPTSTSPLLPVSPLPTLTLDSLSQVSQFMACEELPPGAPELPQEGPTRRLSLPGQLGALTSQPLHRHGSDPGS", "assay": "primary screen, population patch clamp on CHO cells stably expressing hERG", "units": {"hERG current change (%, negative = inhibition) at 10uM": "%"}}
{"smiles": "Cc1cc(C)c[n+](-c2nc3ccccc3nc2[N-]S(=O)(=O)c2ccc(Br)s2)c1", "hERG current change (%, negative = inhibition) at 10uM": -25.9}
{"smiles": "CC(C)c1ccc(Nc2nc(CC(=O)O)cs2)cc1", "hERG current change (%, negative = inhibition) at 10uM": 9.04}
{"smiles": "CC1(C)CC[C@@]23CC[C@]4(C)[C@@](OC2=O)(C3C1)[C@H]1O[C@H]1C1[C@@]2(C)CC[C@H](O)C(C)(C)C2CC[C@]14C", "note": "(some centres unmarked)", "hERG current change (%, negative = inhibition) at 10uM": 3.81}
{"smiles": "Cc1cccc(OCc2nc(-c3nonc3N)no2)c1C", "hERG current change (%, negative = inhibition) at 10uM": 1.57}
{"smiles": "Cc1cc(N)n2nc(-c3ccccc3)c(-c3ccccc3)c2n1", "hERG current change (%, negative = inhibition) at 10uM": 7.59}
{"smiles": "O=C(CSC1=Nc2ccccc2C2=NC(Cc3c[nH]c4ccccc34)C(=O)N12)NC1CCCCC1", "note": "(centres unmarked)", "hERG current change (%, negative = inhibition) at 10uM": -20.5}
{"smiles": "CC(=O)Nc1ccc(S(=O)(=O)NC2C3(C)CCC(C3)C2(C)C)cc1", "note": "(centres unmarked)", "hERG current change (%, negative = inhibition) at 10uM": 16.9}
{"smiles": "COC(=O)c1ccc(C2C(Oc3ccc(OC)cc3)C(=O)N2CCc2ccc(OC)c(OC)c2)cc1", "note": "(centres unmarked)", "hERG current change (%, negative = inhibition) at 10uM": 0.881}
{"smiles": "COc1ccccc1NC(=S)N(Cc1ccc(C)cc1)Cc1cccnc1", "hERG current change (%, negative = inhibition) at 10uM": -37}
{"smiles": "COCc1cc(=O)oc2cc(NC(=O)c3ccc(C(C)(C)C)cc3)ccc12", "hERG current change (%, negative = inhibition) at 10uM": 13.7}
{"smiles": "COc1cc(C(=O)N(c2ccc(C)c(C)c2)C2C=CS(=O)(=O)C2)cc(OC)c1OC", "note": "(centres unmarked)", "hERG current change (%, negative = inhibition) at 10uM": -20.9}
{"smiles": "S=c1[nH]c(-c2ccccc2)cn1-c1ccccc1", "hERG current change (%, negative = inhibition) at 10uM": 13.6}
{"smiles": "COc1ccc(C(=O)NNC(=O)c2cc(C)[nH]n2)cc1", "hERG current change (%, negative = inhibition) at 10uM": 24.1}
{"smiles": "CCN1CCN(C(=O)c2cc(COc3ccc(F)cc3F)on2)[C@@H](C)C1=O", "hERG current change (%, negative = inhibition) at 10uM": 0.18}
{"smiles": "Cn1cnnc1SCC(=O)Nc1ccc(F)cc1", "hERG current change (%, negative = inhibition) at 10uM": 20}
{"smiles": "COc1ccc(Br)c(-c2nc(CS(=O)(=O)c3ccc(F)cc3)no2)c1", "hERG current change (%, negative = inhibition) at 10uM": -3.08}
{"smiles": "CCOC(=O)Cn1cnc2c(nnn2Cc2ccc(Cl)cc2)c1=O", "hERG current change (%, negative = inhibition) at 10uM": 3.06}
{"smiles": "CC1(C)CC2CC(C)(CN2C(=O)COC(=O)c2cccc(O)c2)C1", "note": "(centres unmarked)", "hERG current change (%, negative = inhibition) at 10uM": 6.76}
{"smiles": "CC(=O)N1c2ccccc2Sc2ccccc21", "hERG current change (%, negative = inhibition) at 10uM": 14.7}
{"smiles": "CC(NC(=O)[C@H](C)NC(=O)N1CCn2c1nc1ccccc12)c1ccccc1", "note": "(some centres unmarked)", "hERG current change (%, negative = inhibition) at 10uM": 6.21}
{"smiles": "CN(C)CCCN1C(=O)CSC1c1ccc([N+](=O)[O-])cc1.Cl", "note": "(centres unmarked)", "hERG current change (%, negative = inhibition) at 10uM": -46}
{"smiles": "O=C(CN(C(=O)c1csnn1)c1ccccc1)NCCc1ccccc1", "hERG current change (%, negative = inhibition) at 10uM": -15}
{"smiles": "Clc1ccc(CNCCc2ccc3c(c2)OCO3)cc1.O=C(O)C(=O)O", "hERG current change (%, negative = inhibition) at 10uM": -56.1}
{"smiles": "CCOc1ccc(CNC(=O)CCC(=O)n2ncc3ccc(Cl)cc32)cc1", "hERG current change (%, negative = inhibition) at 10uM": -1.82}
{"smiles": "CC(=O)c1cccc(NC(=O)Nc2ccccc2)c1", "hERG current change (%, negative = inhibition) at 10uM": 18.1}
{"smiles": "O=C(CCC(=O)N(CC(=O)NC1CCCC1)C1CCCCC1)Nc1ccccn1", "hERG current change (%, negative = inhibition) at 10uM": 4.95}
{"smiles": "O=C1NC(=O)N(Cc2ccccc2)C(=O)/C1=C\\c1ccco1", "hERG current change (%, negative = inhibition) at 10uM": 33.4}
{"smiles": "CCN(CC(=O)N1CCCC1)S(=O)(=O)c1ccccc1", "hERG current change (%, negative = inhibition) at 10uM": 18.3}
{"smiles": "COc1ccccc1NC(=S)Nc1ccc2cn[nH]c2c1", "hERG current change (%, negative = inhibition) at 10uM": 4.79}
{"smiles": "Nc1ccn(CC(=O)NCc2ccccn2)c(=O)n1", "hERG current change (%, negative = inhibition) at 10uM": 8.3}
{"smiles": "Cn1c(C(=O)N2CCN(c3ncccn3)CC2)cc2c(=O)n(C)c3ccccc3c21", "hERG current change (%, negative = inhibition) at 10uM": -15.6}
{"smiles": "CC(C)(C)c1ccc(C(=O)NCCC(=O)N2CCC3(CC2)NCCc2[nH]cnc23)cc1", "hERG current change (%, negative = inhibition) at 10uM": 15.4}
{"smiles": "Cn1c(CNC(=O)CCNC(=O)c2cccc(Br)c2)cc(=O)n(C)c1=O", "hERG current change (%, negative = inhibition) at 10uM": 4.99}
{"smiles": "COc1ccc(NC2=C(c3ccc(OC)cc3)C(=O)c3ccccc32)cc1", "hERG current change (%, negative = inhibition) at 10uM": -4.91}
{"smiles": "CC(=O)CSc1cc(-c2ccccc2)nc2ncnn12", "hERG current change (%, negative = inhibition) at 10uM": 3.44}
{"smiles": "Cc1ccc2cc(C#N)c(NCCNC(=S)NCCCN3CCOCC3)nc2c1", "hERG current change (%, negative = inhibition) at 10uM": -36.7}
{"smiles": "O=Cc1cc([N+](=O)[O-])ccc1N1CCOCC1", "hERG current change (%, negative = inhibition) at 10uM": -19.3}
{"smiles": "CCN1CCN(C(=O)c2ccc(Cl)c(S(=O)(=O)N3CCOCC3)c2)CC1", "hERG current change (%, negative = inhibition) at 10uM": -0.549}
{"smiles": "COC(=O)c1c(NC(=O)c2c(-c3ccccc3Cl)noc2C)sc2c1CCC2", "hERG current change (%, negative = inhibition) at 10uM": 6.14}
{"smiles": "CC(C)N(Cc1nccn1C)C(=O)c1cc(COc2cccc(C(F)(F)F)c2)on1", "hERG current change (%, negative = inhibition) at 10uM": -21.8}
{"smiles": "COc1cccc(N2CCN(S(=O)(=O)c3c(C)[nH]c(C)c3C(=O)N3CCCCC3)CC2)c1", "hERG current change (%, negative = inhibition) at 10uM": 6.04}
{"smiles": "O=C(CN1c2cccc3cccc(c23)S1(=O)=O)N1CCN(c2ccc(F)cc2)CC1", "hERG current change (%, negative = inhibition) at 10uM": -42.1}
{"smiles": "Cc1ccc(S(=O)(=O)n2[nH]c(=O)cc2NC(=O)c2cccs2)cc1", "hERG current change (%, negative = inhibition) at 10uM": -0.667}
{"smiles": "Cc1cc(C)n(CCC(=O)N=Nc2c(O)[nH]c3ccccc23)n1", "hERG current change (%, negative = inhibition) at 10uM": 5.66}
